Here are results for two molecules from paper PMC10362054, “p53 restoration in small cell lung cancer identifies a latent cyclophilin-dependent necrosis mechanism” (Nature Communications, 2023).

Protein sequences, listed by entry. Tags and fused reporters are not part of them. Residues count along the entry.
UniProt P17742: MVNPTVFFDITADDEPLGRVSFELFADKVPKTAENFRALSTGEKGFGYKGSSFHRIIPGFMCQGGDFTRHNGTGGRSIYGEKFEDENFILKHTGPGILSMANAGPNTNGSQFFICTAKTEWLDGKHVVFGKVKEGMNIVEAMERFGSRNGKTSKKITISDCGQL
UniProt Q9QZH3: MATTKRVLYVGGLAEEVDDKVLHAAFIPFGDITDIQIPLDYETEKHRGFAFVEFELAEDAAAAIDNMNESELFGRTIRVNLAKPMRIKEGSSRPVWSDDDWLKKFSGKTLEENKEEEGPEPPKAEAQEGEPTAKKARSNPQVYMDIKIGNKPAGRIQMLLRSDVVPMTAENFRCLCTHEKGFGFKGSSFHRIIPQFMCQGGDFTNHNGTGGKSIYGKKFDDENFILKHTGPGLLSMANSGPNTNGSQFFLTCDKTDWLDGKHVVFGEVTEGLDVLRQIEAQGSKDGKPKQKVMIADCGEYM
UniProt Q99KR7, residues 30-206: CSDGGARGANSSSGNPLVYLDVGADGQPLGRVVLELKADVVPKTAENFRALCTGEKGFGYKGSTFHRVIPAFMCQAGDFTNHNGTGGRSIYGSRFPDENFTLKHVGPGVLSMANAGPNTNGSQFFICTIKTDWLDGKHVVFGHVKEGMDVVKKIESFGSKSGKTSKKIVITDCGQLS

These are yes or no findings as the source states them, for the method shown. In cells and extracts the contact can be indirect. Some entries that bind do so weakly or less than the wild type.

Experiment [1] has as its target FLAG-PPIA (cyclophilin A) (mouse) (UniProt P17742). Put plainly: co-IP; as a1, but 24 h after CsA treatment of the cells; Cyclosporin-A included during lysis, anti-FLAG gel incubation and washes.
The target of experiment [2] is FLAG-PPIE (cyclophilin E) (mouse) (UniProt Q9QZH3). In words: co-IP; HEK293T cells overexpressing FLAG-Ppia or FLAG-Ppie and HA-Trp53; lysis in NP-40 buffer (0.1% NP-40, 15 mM Tris-HCl pH 7.4, 1 mM EDTA, 150 mM NaCl, 1 mM MgCl2, 10% glycerol); anti-FLAG M2 affinity gel, 4 °C, 2 h; immunoblot.
Experiment [3] deals with FLAG-PPIA (cyclophilin A) (mouse) (UniProt P17742). Described as above.
Experiment [4] concerns the target Cyclophilin A (endogenous) (mouse (endogenous in mouse SCLC tumor-derived cell lines)) (UniProt P17742). Put plainly: proximity ligation; as a3, cells treated with 4-OHT and CsA for 48 h.
For experiment [5], the target named is Cyclophilin D (endogenous) (mouse (endogenous in mouse SCLC tumor-derived cell lines)) (UniProt Q99KR7). Put plainly: proximity ligation; Duolink PLA on fixed Type D (4711-18) and Type V (4716-10) mouse SCLC cells treated with 4-OHT for 48 h; endogenous proteins; antibodies to p53 and to cyclophilin A, D or E.
Experiment [6] has as its target Cyclophilin E (endogenous) (mouse (endogenous in mouse SCLC tumor-derived cell lines)) (UniProt Q9QZH3). The experiment is described as above.
The target in experiment [7] is Cyclophilin A (endogenous) (mouse (endogenous in mouse SCLC tumor-derived cell lines)) (UniProt P17742). The description is as above.

Turning to “HA-p53 (HA-Trp53) (from UniProt P02340 1-390)”, the binding result is recorded as “no binding (condition: with Cyclosporin A (CsA))” in experiment [1], “no binding” in experiment [2] and “binds” in experiment [3].

B1: p53 (endogenous, restored Trp53 allele) (natural protein, UniProt P02340 1-390, looked up)
chain: MTAMEESQSDISLELPLSQETFSGLWKLLPPEDILPSPHCMDDLLLPQDVEEFFEGPSEALRVSGAPAAQDPVTETPGPVAPAPATPWPLSSFVPSQKTYQGNYGFHLGFLQSGTAKSVMCTYSPPLNKLFCQLAKTCPVQLWVSATPPAGSRVRAMAIYKKSQHMTEVVRRCPHHERCSDGDGLAPPQHLIRVEGNLYPEYLEDRQTFRHSVVVPYEPPEAGSEYTTIHYKYMCNSSCMGGMNRRPILTIITLEDSSGNLLGRDSFEVRVCACPGRDRRTEEENFRKKEVLCPELPPGSAKRALPTCTSASPPQKKKPLDGEYFTLKIRGRKRFEMFRELNEALELKDAHATEESGDSRAHSSYLKTKKGQSTSRHKKTMVKKVGPDSD
notes: p53 expressed from the restored endogenous Trp53 allele (p53 R state) in cell lines derived from mouse SCLC tumors; source: endogenous, mouse SCLC Type D (4711-18) and Type V (4716-10) cells after 4-OHT, fixed cells
For the molecule B1, the binding result is given as “no binding (condition: with Cyclosporin A (CsA), 48 h)” in experiment [4]; “binds weakly” in experiment [5]; “no binding” in experiment [6]; “binds” in experiment [7].
